These are yes or no findings as the source states them, for the method shown. For part of these data: In cells and extracts the contact can be indirect. Some results given as binding are weak or reduced against the parent protein; the word gives no strength. For part of these data: Where a sequence is shown, tags or fusion partners need not be part of it. Blank lines part the entries; values can stand above or below the substance they belong to.
Key:
[1] = biological target: Flag-RAD51, full length (UniProt Q06609); test: co-IP; anti-Flag immunoprecipitation from HEK293T cells transfected with empty vector or Flag-RAD51, with or without DNase I; blot for PCAF (Fig. EV2D)
[2] = biological target: RAD51 (endogenous) (human (endogenous in HEK293T and HeLa)) (UniProt Q06609); test: co-IP; anti-RAD51 immunoprecipitation from HEK293T cells; blot for endogenous PCAF or p300 (Figs. 2B, EV2A)
[3] = biological target: T1, Flag-RAD51 R1 (residues 1-114, N-terminal domain) (UniProt Q06609); test: co-IP; immunoprecipitation of Flag-RAD51 full length, R1 or R2; blot for endogenous PCAF; cells not named (Fig. 2F)
T1 sequence: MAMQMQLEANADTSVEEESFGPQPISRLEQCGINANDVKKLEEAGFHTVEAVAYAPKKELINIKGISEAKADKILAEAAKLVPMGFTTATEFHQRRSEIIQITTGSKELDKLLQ

The chains behind the UniProt entries cited, without tags or fusion partners.
UniProt Q92831: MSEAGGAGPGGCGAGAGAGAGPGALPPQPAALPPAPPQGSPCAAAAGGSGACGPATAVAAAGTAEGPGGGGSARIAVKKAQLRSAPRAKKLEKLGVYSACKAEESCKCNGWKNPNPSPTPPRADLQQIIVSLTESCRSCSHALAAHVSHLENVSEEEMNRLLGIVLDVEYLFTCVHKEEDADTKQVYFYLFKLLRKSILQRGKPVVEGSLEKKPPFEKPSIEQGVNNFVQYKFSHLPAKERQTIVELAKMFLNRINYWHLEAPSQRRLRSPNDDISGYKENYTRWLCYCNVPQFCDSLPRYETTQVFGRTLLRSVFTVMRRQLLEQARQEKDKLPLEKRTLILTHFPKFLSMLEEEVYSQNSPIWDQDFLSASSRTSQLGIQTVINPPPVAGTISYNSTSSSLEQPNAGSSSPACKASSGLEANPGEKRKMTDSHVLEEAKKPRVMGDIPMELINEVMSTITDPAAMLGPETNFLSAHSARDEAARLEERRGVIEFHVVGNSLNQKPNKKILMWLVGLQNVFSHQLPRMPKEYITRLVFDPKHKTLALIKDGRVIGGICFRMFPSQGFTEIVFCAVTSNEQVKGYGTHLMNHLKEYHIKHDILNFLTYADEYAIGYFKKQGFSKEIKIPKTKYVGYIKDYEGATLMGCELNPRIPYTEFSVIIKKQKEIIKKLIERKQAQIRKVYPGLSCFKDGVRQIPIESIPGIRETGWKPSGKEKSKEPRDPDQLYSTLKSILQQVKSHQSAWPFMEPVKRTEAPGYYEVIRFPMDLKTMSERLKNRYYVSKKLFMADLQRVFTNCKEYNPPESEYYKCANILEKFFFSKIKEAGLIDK
UniProt Q09472: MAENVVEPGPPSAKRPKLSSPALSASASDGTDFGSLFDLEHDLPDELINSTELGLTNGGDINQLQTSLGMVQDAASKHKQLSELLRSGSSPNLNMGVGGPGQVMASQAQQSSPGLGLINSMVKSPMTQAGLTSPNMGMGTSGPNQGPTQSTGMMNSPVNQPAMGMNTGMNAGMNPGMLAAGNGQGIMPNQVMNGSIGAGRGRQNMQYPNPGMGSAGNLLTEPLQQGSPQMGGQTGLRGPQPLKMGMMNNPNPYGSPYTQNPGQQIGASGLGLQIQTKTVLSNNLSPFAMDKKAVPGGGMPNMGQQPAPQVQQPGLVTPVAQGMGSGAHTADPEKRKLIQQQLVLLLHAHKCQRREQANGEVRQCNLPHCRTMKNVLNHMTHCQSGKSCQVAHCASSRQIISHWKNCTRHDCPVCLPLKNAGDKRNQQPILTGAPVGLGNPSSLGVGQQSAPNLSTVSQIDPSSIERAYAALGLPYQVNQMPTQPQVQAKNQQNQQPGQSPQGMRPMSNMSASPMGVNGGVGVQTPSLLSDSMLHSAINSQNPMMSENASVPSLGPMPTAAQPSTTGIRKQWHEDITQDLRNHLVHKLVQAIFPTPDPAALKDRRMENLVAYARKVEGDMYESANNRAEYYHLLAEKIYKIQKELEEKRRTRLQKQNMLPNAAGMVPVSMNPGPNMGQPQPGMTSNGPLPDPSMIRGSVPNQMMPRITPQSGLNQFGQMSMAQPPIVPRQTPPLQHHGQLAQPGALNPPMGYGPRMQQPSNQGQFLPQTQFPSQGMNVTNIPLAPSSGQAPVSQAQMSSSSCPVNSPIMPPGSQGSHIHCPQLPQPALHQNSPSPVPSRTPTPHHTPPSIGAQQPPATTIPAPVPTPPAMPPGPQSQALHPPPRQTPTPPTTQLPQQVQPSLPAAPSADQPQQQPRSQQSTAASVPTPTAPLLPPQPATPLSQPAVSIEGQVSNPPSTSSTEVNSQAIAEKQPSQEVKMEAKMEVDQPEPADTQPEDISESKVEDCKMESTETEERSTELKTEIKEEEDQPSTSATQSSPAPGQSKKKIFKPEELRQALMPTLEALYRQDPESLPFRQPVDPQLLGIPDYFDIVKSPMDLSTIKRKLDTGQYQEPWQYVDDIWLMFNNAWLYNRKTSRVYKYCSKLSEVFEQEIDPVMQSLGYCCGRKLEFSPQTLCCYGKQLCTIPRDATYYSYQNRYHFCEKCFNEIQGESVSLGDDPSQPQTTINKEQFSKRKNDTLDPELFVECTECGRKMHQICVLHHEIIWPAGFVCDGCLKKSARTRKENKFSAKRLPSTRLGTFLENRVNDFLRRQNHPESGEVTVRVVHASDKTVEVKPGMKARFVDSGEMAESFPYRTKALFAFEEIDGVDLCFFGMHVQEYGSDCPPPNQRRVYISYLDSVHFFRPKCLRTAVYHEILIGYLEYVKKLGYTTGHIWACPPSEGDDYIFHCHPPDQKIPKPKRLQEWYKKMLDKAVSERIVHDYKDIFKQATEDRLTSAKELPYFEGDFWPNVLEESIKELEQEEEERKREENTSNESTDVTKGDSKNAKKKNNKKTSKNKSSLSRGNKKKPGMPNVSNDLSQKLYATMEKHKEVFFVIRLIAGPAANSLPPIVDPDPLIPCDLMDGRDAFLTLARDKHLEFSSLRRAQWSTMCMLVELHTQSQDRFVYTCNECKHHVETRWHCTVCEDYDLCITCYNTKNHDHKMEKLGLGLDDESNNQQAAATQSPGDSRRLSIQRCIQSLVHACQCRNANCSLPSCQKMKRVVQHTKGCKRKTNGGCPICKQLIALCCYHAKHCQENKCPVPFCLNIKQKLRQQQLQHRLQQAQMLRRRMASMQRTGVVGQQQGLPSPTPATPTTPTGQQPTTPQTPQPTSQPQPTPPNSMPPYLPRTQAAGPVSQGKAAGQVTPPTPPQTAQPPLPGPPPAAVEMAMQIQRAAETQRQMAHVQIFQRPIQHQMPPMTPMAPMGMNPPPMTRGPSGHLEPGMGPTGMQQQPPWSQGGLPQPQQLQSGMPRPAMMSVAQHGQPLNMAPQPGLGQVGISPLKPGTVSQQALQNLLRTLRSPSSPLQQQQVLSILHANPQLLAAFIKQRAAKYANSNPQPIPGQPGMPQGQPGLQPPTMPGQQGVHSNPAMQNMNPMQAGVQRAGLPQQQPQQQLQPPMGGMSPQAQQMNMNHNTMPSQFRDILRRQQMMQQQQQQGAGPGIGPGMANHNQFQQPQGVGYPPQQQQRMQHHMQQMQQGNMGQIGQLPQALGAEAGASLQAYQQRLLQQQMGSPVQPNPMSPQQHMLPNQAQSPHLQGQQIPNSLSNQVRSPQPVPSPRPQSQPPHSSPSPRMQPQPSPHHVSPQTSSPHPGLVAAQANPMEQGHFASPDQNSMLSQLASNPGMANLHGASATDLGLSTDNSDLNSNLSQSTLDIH

[4] = biological target: Flag-RAD51, full length (UniProt Q06609); test: as above
[5] = biological target: Flag-RAD51 R2 (residues 82-339, ATPase domain) (UniProt Q06609); test: as above
[6] = biological target: Flag-PCAF (p300-associated factor), full length (UniProt Q92831); test: co-IP; anti-Flag M2 beads, HEK293T cells transfected with empty vector or Flag-PCAF; blot for endogenous RAD51 (Fig. EV2B)
[7] = biological target: His-RAD51, purified from E. coli (UniProt Q06609); test: pull-down; purified His-RAD51 bound to RAD51 antibody on Protein A/G magnetic beads, incubated with purified His-PCAF; western blot (Fig. 2C); both purified
[8] = biological target: RAD51 (endogenous) (human (endogenous in HEK293T and HeLa)) (UniProt Q06609); test: co-IP; RAD51 immunoprecipitates from cells expressing Flag-PCAF full length, HAT or ΔHAT; cells not named (Fig. 2G)
[9] = biological target: RAD51 (endogenous) (human (endogenous in HEK293T and HeLa)) (UniProt Q06609); test: co-IP; anti-RAD51 immunoprecipitation from HEK293T cells transfected with Flag-tagged acetyltransferases; blot for Flag (Fig. 2A)
[10] = biological target: His-RAD51 expressed in HEK293T cells (UniProt Q06609); test: co-IP; anti-His immunoprecipitation from HEK293T cells co-transfected with Flag-PCAF and His-RAD51 or empty vector; blot for Flag (Fig. EV2C)
[11] = biological target: RAD51 (endogenous) (human (endogenous in HEK293T and HeLa)) (UniProt Q06609); test: co-IP; anti-RAD51 immunoprecipitation from HeLa cells transfected with empty vector or Flag-PCAF, with or without ETO (20 uM, 2 h); blot for Flag (Fig. 2E)

- binding [1]: binds
- binding [2]: binds
- binding [3]: no binding
- binding [4]: binds
- binding [5]: binds
Substance: PCAF (endogenous) (from UniProt Q92831 1-832) (enzyme)

- binding [7]: binds
Substance: His-PCAF, purified from E. coli (from UniProt Q92831 1-832) (enzyme)

- binding [8]: binds
- binding [9]: binds
- binding [10]: binds
- binding [11]: binds
Substance: Flag-PCAF (p300-associated factor), full length (from UniProt Q92831 1-832) (enzyme)

Further lines, the substance ahead of its results:

Substance: p300 (endogenous) (from UniProt Q09472 1-2414) (enzyme)
- binding [2]: no binding

Substance: RAD51 (endogenous) (from UniProt Q06609 1-339)
- binding [6]: binds
